Experimental data reported in PubChem BioAssay AID1347073 (National Center for Advancing Translational Sciences (NCATS), 2019).
The whole screen tested about 45,000 compounds, of which about 200 (0.44%) were called active. About 7% were inconclusive and are not listed. Calls follow the shape of the dose curve; as a rule, active = well fitted activation curve with a large enough effect; inconclusive = small, poorly fitted or top-dose-only effect; inactive = no such curve, though single readings can be large or run the other way. The list shows a part of the results.

Assay: qHTS of TDP-43 Inhibitors: NCGC Sytravon Library Screen; also: 0% is about no effect; nearly all actives have a fitted effect of over 55% in size
Conditions: yeast TDP-43 toxicity rescue, BacTiter-Glo growth, 24 h; series mostly up to 46.1 µM; growth rescue (activation): at the top concentration
Method in brief: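 TDP-43-expressing yeast, pregrown in raffinose, seeded at OD600 0.02 in galactose medium with compound for 24 hr at 30 deg C. Growth read by BacTiter-Glo luminescence, so rescue of toxicity appears as activation.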

| SMILES | growth rescue (activation) |
| --- | --- |
| COC(CNC(=O)c1ccc2c(c1)ncn2-c1cccc(C)c1)OC | inactive: 11.9% |
| Cc1occc1C(=O)N/N=C/c1ccc(-c2ccccc2)cc1 | inactive: -45.9% |
| CCN(CC)S(=O)(=O)c1ccc(C(=O)NCCN2C(=O)S/C(=C\c3cccnc3)C2=O)cc1 | inactive: -1.35% |
| CCC(C)NS(=O)(=O)c1ccc(N)cc1 (centres undefined) | inactive: -2.62% |
| Cc1onc(-c2ccccc2Cl)c1C(=O)NNC(=O)c1ccc(F)cc1 | inactive: -2.8% |
| Cc1noc(NS(=O)(=O)c2ccc(NC(=O)COc3ccc(C#N)cc3)cc2)c1C | inactive: 16.5% |
| CC1(c2ccccc2Cl)NC(=O)N(CC(=O)Nc2ccccc2OC(F)F)C1=O (centres undefined) | inactive: 0.129% |
| O=C(c1ccco1)N1CCN(CCCCOc2ccc(F)cc2)CC1 | inactive: 15.9% |
| Cc1ccc2nc(NC(=O)C3CC(=O)N(Cc4ccco4)C3)sc2c1 (centres undefined) | inactive: -9.08% |
| Cn1ncc2c1ncn1nc(COc3ccc4ccccc4c3)nc21 | inactive: 8.13% |
| OC(c1cccc(Cl)c1)c1ncc(-c2cccc(C(F)(F)F)c2)[nH]1 (centres undefined) | inactive: 10.1% |
| CCn1cc(C(=O)NCCCN2CCN(C)CC2)c(=O)c2cc(S(=O)(=O)N3CCc4ccccc4C3)ccc21 | inactive: -7.99% |
| O=C(O)c1cccc2c1C(=O)N(c1ccccc1)C2 | inactive: -32.1% |
| O=C(COC(=O)c1cccs1)NCc1cccs1 | inactive: -2.87% |
| C=CCOc1ccccc1CN1CCC(Oc2ccc(C(=O)N3CCCCC3)cc2)CC1 | inactive: 11% |
| COc1ccc(S(=O)(=O)Nc2cccc(S(=O)(=O)N3CCCCCC3)c2)cc1 | inactive: 15% |
| O=C(CCNC(=O)c1ccccc1Cl)Nc1nc2ccccc2[nH]1 | inactive: 3.32% |
| O=C(CN(c1ccc(Cl)cc1)S(=O)(=O)c1ccc(Cl)c([N+](=O)[O-])c1)NCCc1ccc(F)cc1 | inactive: 1.43% |
| O=C(CCc1ccccc1)Nc1ccc(S(=O)(=O)NC2=NCCCCC2)cc1 | inactive: 0.728% |
| COc1ccc(Cc2nc3ccc(C(=O)NCc4cc(C)no4)cc3o2)cc1 | inactive: 15.1% |
| CN(C(=O)COC(=O)C1CCN(S(=O)(=O)c2ccc(Cl)cc2)CC1)C1CCS(=O)(=O)C1 (centres undefined) | inactive: 5.36% |
| CN1C2CC(OC(=O)C(CO)c3ccccc3)CC1C1OC12 (centres undefined) | inactive: 1.96% |
| Cc1cnc(C(=O)OCc2ccc(C#N)cc2)cn1 | inactive: 8.91% |
| CS(=O)(=O)N(Cc1ccc(C(=O)NC2CCCC2)cc1)c1ccccc1 | inactive: -4.98% |
| COc1ccc(-c2nc3ccc([N+](=O)[O-])cc3[nH]2)cc1 | inactive: 1.37% |
| COCCNC(=O)COC(=O)c1ccc(S(=O)(=O)N2CCOCC2)cc1 | inactive: 2.62% |

| SMILES | growth rescue (activation) |
| --- | --- |
| Cc1ccc(NC(=S)N2CCC(NC(=O)c3ccc(C)cc3)CC2)cc1 | inactive: 10.2% |
| CSc1ccc(CCNC(=O)C2=C(C)C(=O)OC23CCCCC3)cc1 | inactive: 7.2% |
| O=C(C/C=N\O)Nc1ccc(Oc2ccccc2)cc1 | inactive: 1.91% |
| Cc1cccc(C(=O)N/C(=C\c2ccco2)C(=O)N2CCCCCC2)c1 | inactive: 0.875% |
| CCN(CC)CCCNC(=S)N1CCN(c2nc(-c3ccccc3)cs2)CC1 | inactive: 6.02% |
| CCOC(=O)c1c(-c2ccccc2)csc1NC(=O)CSc1nnc(C)s1 | inactive: 6.16% |
| Cn1cc(CNCCN2CCCCC2=O)c(-c2cccc(Cl)c2)n1 | inactive: 10.8% |
| Cc1cc(C(=O)NNC(=O)c2cccc(S(=O)(=O)N3CCOCC3)c2)c2ccccc2n1 | inactive: -3.44% |
| O=C(/C=C/c1ccc(Cl)cc1Cl)N(Cc1ccccc1)C1CCS(=O)(=O)C1 (centres undefined) | inactive: 23.6% |
| COCc1cc(C)nc(SC)c1C#N | inactive: 2.92% |
| Cc1ccccc1-c1nnc(CN2CCN(C(=O)c3ccco3)CC2)o1 | inactive: -2.44% |
| Cc1onc(-c2c(F)cccc2Cl)c1C(=O)Nc1ccc(S(=O)(=O)N2CCOCC2)cc1 | inactive: 25.1% |
| CCCS(=O)(=O)N1CCN(Cc2ccc3c(c2)c2ccccc2n3CC)CC1 | inactive: 11.7% |
| CCc1cc(-c2n[nH]c(C)c2-c2nc3ccccc3n2C)c(O)cc1O | inactive: 2.77% |
| Cc1ccn(CCC(=O)N2CCCC(CCC(=O)NCc3ccc(F)c(F)c3)C2)n1 (centres undefined) | inactive: 3.26% |
| Cc1nc2ccc(C(=O)N(C)Cc3ccco3)cn2c1N(C)CC1CCCCC1 | inactive: 9.93% |
| COc1ccccc1-n1c(C)cc(/C=C2/C(=N)N3C(=NC2=O)SN=C3S(C)(=O)=O)c1C | inactive: -10.6% |
| O=C(NN1C(=O)NC2(CCCCC2)C1=O)c1ccc(-c2ccccc2Cl)o1 | inactive: 11.8% |
| CCC(C)NC(=O)Cn1c(=O)n(CCCCCC(=O)Nc2ccccc2)c(=O)c2sccc21 (centres undefined) | inactive: 3.36% |
| CN1C(=O)CC(C(=O)Nc2ccc(C(=O)O)cc2)SC1=Nc1ccc(Cl)cc1 (centres undefined) | inactive: 7.73% |
| CC(C)(C)NC(=O)C(c1c[nH]c2ccccc12)N(C(=O)Cn1nnc(-c2ccc(F)cc2)n1)c1cccc(O)c1 (centres undefined) | inactive: 4.81% |
| O=C(NCC1COc2ccccc2O1)C1CCN(S(=O)(=O)c2ccccc2)CC1 (centres undefined) | inactive: 25% |
| COc1cc(C(=O)Oc2cccc(/C=N/NC(=O)c3cccnc3)c2)cc(OC)c1OC | inactive: 22.2% |
| O=C(CN1C(=O)N/C(=C\c2ccccc2OCc2ccc(C(=O)O)cc2)C1=O)Nc1ccc(F)cc1 | inactive: 9.71% |
| COc1ccc(OCC(=O)Nc2ccccc2-c2ccccc2)cc1 | inactive: 22.2% |
| COC(=O)CC1C(=O)NCCN1C(=O)c1c(F)cccc1F (centres undefined) | inactive: -6.14% |

| SMILES | growth rescue (activation) |
| --- | --- |
| CCOC(=O)N(C)c1c(CC)nc2c(OCc3ccccc3C(=O)OC)cccn12 | inactive: -1.65% |
| COCCCNC(=S)Nc1ccc2c(c1)OCCO2 | inactive: 15.2% |
| COc1ccc(-c2nc(CN3CCN(c4cc(C)nc(C)c4)CC3)c(C)o2)c2ccccc12 | inactive: 0.271% |
| COCCSc1nnc(NC(=O)c2ccc(OC)c([N+](=O)[O-])c2)s1 | inactive: -4.52% |
| CCC1CCCCN1C(=O)COC(=O)c1ccc(S(=O)(=O)N2CCOCC2)cc1 (centres undefined) | inactive: 0.406% |
| Cc1sc2ncnc(Sc3ccccc3C(=O)Nc3ccc(Br)cc3)c2c1C | inactive: 2.16% |
| O=S(=O)(NCc1ccccn1)c1cc(Cl)ccc1Cl | inactive: 18.4% |
| Nc1nonc1-n1nnc(C(=O)N/N=C/c2ccccc2)c1CSc1ccc(Cl)cc1 | inactive: 16.2% |
| COc1ccc(CC(=O)N2CCCC2)c(OC)c1 | inactive: 24.7% |
| O=C(NC1CC2CCCC(C1)N2C(=O)Nc1ccccc1)C1CC1 (centres undefined) | inactive: -3.52% |
| COc1ccc(CCNC(=O)c2ccccc2N(C)S(=O)(=O)c2ccccc2)cc1 | inactive: 5.29% |
| O=C(COc1ccc(S(=O)(=O)N2CCCC2)cc1)N1CCN(c2ccccc2F)CC1 | inactive: 13.9% |
| Nc1nnc(CC(=O)N/N=C/c2ccc(-c3cccc(C(=O)O)c3)o2)s1 | inactive: 1.84% |
| COc1cccc(CNC(=O)CCC2CCCN(Cc3ccc(OC(F)F)cc3)C2)c1 (centres undefined) | inactive: 4.5% |
| COc1cccc(/C=N/Nc2snc(SC)c2C#N)c1 | inactive: 8.64% |
| Cc1onc(-c2ccccc2)c1C(=O)Nc1ncc([N+](=O)[O-])s1 | inactive: -8.6% |
| COc1ccc(NC(=O)CN2C(=O)NC(C)(c3ccccc3)C2=O)cc1Cl (centres undefined) | inactive: 9.7% |
| CCCCN(Cc1ccccc1)S(=O)(=O)c1ccc2[nH]c(=O)oc2c1 | inactive: 6.71% |
| O=C(NCCc1nc2ccccc2[nH]1)/C(=C/c1ccco1)NC(=O)c1ccco1 | inactive: -1.57% |
| CCCOC(=O)Nc1ccccc1C(N)=O | inactive: -10.8% |
| O=C(O)CSc1nnc(-c2ccc3c(c2)OCO3)n1-c1ccccc1 | inactive: 9.46% |
| O=C(O)CNC(=O)c1ccc(Oc2c(F)c(F)c(Oc3ccc(C(=O)NCC(=O)O)cc3)c(F)c2F)cc1 | inactive: -3.01% |
| COc1ccc(CN2C[C@@H](CO)O[C@@H](n3cnc4c(NCCCO)ncnc43)C2)cc1 | inactive: 4.01% |
| Cc1cc(C=O)c(C)n1-c1cc(C(=O)O)cc(C(=O)O)c1 | inactive: 4.52% |
| O=C(Nc1cccnc1)c1cccc(S(=O)(=O)Nc2ccccc2F)c1 | inactive: 13.6% |
| O=C(CSc1nc(-c2ccccc2)nc2ccc(F)cc12)Nc1ccc(C(=O)O)cc1 | inactive: 17.5% |

| SMILES | growth rescue (activation) |
| --- | --- |
| Cc1ccc(S(=O)(=O)Nc2ccc3c(c2)n(C)c(=O)n3C)c(C)c1 | inactive: -3.41% |
| Cc1cc(NS(=O)(=O)c2ccc(NC(=O)/C=C/c3ccc(C)o3)cc2)nc(C)n1 | inactive: -8.46% |
| O=C(c1ccc(Br)cc1)c1cc2ccc(O)cc2oc1=O | inactive: -1.14% |
| O=C(c1ccco1)N1CCN(C(=O)c2ccccc2[N+](=O)[O-])CC1 | inactive: 11% |
| COc1ccc(C(=O)Nc2ccccc2C(=O)Nc2ccccn2)cc1 | inactive: 9.88% |
| CC1CC(=O)Nc2ccccc2N1C(=O)CN1C(=O)C(=O)N(C)C1=O (centres undefined) | inactive: -4.1% |
| Cc1cc(C)cc(OCC(=O)Nc2ccc3c(c2)OCO3)c1 | inactive: 9.3% |
| O=C(Nc1nnc(-c2ccccc2)s1)c1ccc(F)cc1 | inactive: 5.22% |
| CC1Cc2ccccc2N1S(=O)(=O)c1cccc(C(=O)N2CCN(c3ncccn3)CC2)c1 (centres undefined) | inactive: 8.57% |
| O=c1nc2ccccc2c2n1CC(CN1CCN(c3ccccc3F)CC1)N2 (centres undefined) | inactive: -5.95% |
| Cc1cccc(N(CC(=O)NC2CCCCC2)C(=O)CCC(=O)Nc2nccs2)c1 | inactive: 5.19% |
| CCCNC(=S)N1CCC(C(=O)c2ccc(F)cc2)CC1 | inactive: 27.6% |
| O=C(c1cccc(S(=O)(=O)Nc2cccc(C(F)(F)F)c2)c1)N1CCOCC1 | inactive: 35.7% |
| Cc1cc(OCc2nnc(SCC(=O)O)n2-c2ccccc2)ccc1Cl | inactive: 5.76% |
| COc1ccc(Cl)cc1S(=O)(=O)N1CCC(C(=O)NCc2ccco2)CC1 | inactive: 11.1% |
| CCCn1c(SCC(=O)c2c[nH]c3ccccc23)nnc1-c1ccncc1 | inactive: 18.4% |
| Cc1cc(N2CCN(c3ccccc3F)CC2)nc2cc(O)ccc12 | inactive: 28% |
| CCOC(=O)c1c(NC(=O)c2noc(C)c2[N+](=O)[O-])sc(C(C)=O)c1C | inactive: 6.57% |
| COCCNC(=O)c1ccc2c(c1)ncn2-c1ccc(C)c(Cl)c1 | inactive: 30.3% |
| CC(=O)C(Cc1ccccc1)NC(=O)COC(=O)c1ccc(-n2cnnn2)cc1 (centres undefined) | inactive: 17.2% |
| Cc1ccc(S(=O)(=O)NCC(C)n2cncn2)cc1 (centres undefined) | inactive: 5.4% |
| COc1ccc(OC)c(-c2csc(-c3cccs3)n2)c1 | inactive: -4.26% |
| Cc1occc1-c1nnc(SCC(=O)NC(C)(C)C)n1CC(C)C | inactive: 10.9% |
| CCCCNC(=O)N1CCN(C(=O)C2CCCO2)CC1 (centres undefined) | inactive: -11.1% |
| COc1ccc(NC(=S)NC(C)c2ccncc2)cc1OC (centres undefined) | inactive: 8.9% |
| CCN(CC)CCN1C(=O)C2C(C(=O)Nc3cccc(SC)c3)C3C=CC2(O3)C1C(=O)NC1CCCC(C)C1C (centres undefined) | inactive: 3.07% |
